The campaign covered roughly 310,000 compounds. About 2,200 (0.71%) showed an effect of 50% or more. The effect is printed as a negative number. The list shows a part of the results.
Each compound was assayed against human ether-à-go-go-related gene (hERG) potassium channel (human, UniProt Q12809) (assay: primary screen, population patch clamp on CHO cells stably expressing hERG).
Chain of human ether-à-go-go-related gene (hERG) potassium channel (Q12809 whole entry, looked up): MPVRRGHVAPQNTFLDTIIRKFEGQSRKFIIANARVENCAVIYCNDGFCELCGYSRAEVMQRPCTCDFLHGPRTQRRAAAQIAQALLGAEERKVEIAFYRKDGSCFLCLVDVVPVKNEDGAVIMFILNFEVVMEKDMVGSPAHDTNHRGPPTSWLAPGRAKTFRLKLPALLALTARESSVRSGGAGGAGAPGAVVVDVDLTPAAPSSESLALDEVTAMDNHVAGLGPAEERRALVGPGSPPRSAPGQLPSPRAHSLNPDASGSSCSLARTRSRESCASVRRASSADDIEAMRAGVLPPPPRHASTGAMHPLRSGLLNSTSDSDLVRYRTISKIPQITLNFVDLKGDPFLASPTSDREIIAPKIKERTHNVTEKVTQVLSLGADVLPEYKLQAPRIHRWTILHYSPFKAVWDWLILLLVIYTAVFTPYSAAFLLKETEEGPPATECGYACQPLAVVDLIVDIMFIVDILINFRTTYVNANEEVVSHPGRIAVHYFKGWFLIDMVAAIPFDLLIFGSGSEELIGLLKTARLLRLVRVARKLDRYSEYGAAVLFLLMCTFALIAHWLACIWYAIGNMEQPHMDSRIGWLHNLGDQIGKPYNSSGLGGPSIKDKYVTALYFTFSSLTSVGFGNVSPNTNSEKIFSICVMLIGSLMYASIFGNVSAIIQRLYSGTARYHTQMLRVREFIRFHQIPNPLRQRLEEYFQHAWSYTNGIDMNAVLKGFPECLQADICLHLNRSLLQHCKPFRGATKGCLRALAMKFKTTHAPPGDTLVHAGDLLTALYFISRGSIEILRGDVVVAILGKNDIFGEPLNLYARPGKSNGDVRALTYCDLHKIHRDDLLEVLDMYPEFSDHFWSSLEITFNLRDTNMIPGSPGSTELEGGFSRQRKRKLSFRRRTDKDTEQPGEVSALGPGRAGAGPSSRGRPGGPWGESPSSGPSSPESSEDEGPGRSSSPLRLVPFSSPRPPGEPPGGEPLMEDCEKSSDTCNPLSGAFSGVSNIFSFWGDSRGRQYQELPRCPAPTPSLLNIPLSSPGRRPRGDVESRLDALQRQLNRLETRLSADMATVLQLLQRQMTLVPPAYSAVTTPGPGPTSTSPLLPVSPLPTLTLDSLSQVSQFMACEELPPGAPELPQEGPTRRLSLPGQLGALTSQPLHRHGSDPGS

| SMILES | hERG current change (%, negative = inhibition) at 1uM [%] |
| --- | --- |
| Cc1ccc(/C=N/n2nnnc2N)o1 | -1.91 |
| Cc1nn(C)cc1C(C)NC(=O)c1cc(COc2ccc(F)c(F)c2)on1 (centres unmarked) | 6.26 |
| CCC(Sc1nc(N)cc(N)n1)C(=O)O (centres unmarked) | 8.78 |
| CC(=O)c1cccc(NC(=O)Nc2ccc3c(c2)CCC3)c1 | 9.65 |
| COc1ccc(/C=C/C(=O)OCC(=O)Nc2cc3oc4ccccc4c3cc2OC)cc1 | 15.1 |
| COC(=O)CCC(=O)OC1(C)C(=O)C2=CN(Cc3ccc4c(c3)OCO4)C(c3ccc(OC)cc3)=CC2=C(Br)C1=O (centres unmarked) | 15.8 |
| COc1ccc(-c2cccc(C(=O)Nc3ccc(OC)c(OC)c3)c2)cc1 | 5.59 |
| COC(=O)CSCC(=O)Nc1nnc(-c2ccccc2C)s1 | 16.2 |
| CC(C)C[C@H]1CN=C(Nc2ccccc2)N1CCC(C)c1ccccc1 (some centres unmarked) | -8.04 |
| COc1ccc(/C=C/C(=O)OCCNC(=O)c2ccncc2)cc1OC | 17.4 |
| Cc1nc2ccc(NS(=O)(=O)c3c(F)cc(F)cc3Br)cc2s1 | 9.33 |
| CC(C)CN(C(=O)CN1CCN(c2ccccc2F)CC1)c1c(N)n(CC(C)C)c(=O)[nH]c1=O | 18.6 |
| O=C(O)C1C(C(=O)O)C2(Cl)C(Cl)=C(Cl)C1(Cl)C2(Cl)Cl (centres unmarked) | 10.7 |
| CCN(CC(=O)NCc1ccc(F)cc1)C(=O)COc1ccc2ccccc2c1 | -9.85 |
| COc1ccc(S(=O)(=O)NC(C)C(=O)Nc2ccccc2C(F)(F)F)cc1 (centres unmarked) | 2.15 |
| O=C(Cc1ccccc1)c1ccccc1C(=O)N1CCCCC1 | 15.2 |
| COc1ccc2[nH]c(C(=O)Nc3ccc(C)c(F)c3)cc2c1 | 13.5 |
| COC(=O)c1cccc(NC(=O)CSc2nncn2-c2ccccn2)c1 | -0.0535 |
| ClC(Cl)=C(c1ccc(Cl)cc1)c1ccc(Cl)cc1 | 1.52 |

| SMILES | hERG current change (%, negative = inhibition) at 1uM [%] |
| --- | --- |
| COc1ccc(Cl)cc1NC(=S)Nc1ccc(Cl)cn1 | 3.78 |
| O=C(O)CC(c1cccc(Cl)c1)n1cccc1 (centres unmarked) | 7.7 |
| Cc1ccc(-n2c(O)c(C=NCc3ccco3)c(=O)[nH]c2=S)cc1C | 15.1 |
| C=CCN1C(=O)C(Cc2ccc(OC)cc2)S/C1=N/N=C/c1ccco1 (centres unmarked) | -8.04 |
| COCCNC(=S)Nc1cccc2cnccc12 | 9.71 |
| COc1cc(CNCc2ccncc2)cc(Br)c1OCc1ccccc1F.Cl | -24.2 |
| CCOC(=O)N1CCN(C(=O)NC2CCCCC2)CC1 | 15.5 |
| C[C@]12CCC3C(CCC4=C/C(=N/OCC(=O)NC(CCC(N)=O)C(=O)O)CC[C@@]43C)C1CCC2O (some centres unmarked) | 2.61 |
| COc1ccccc1NC(=O)N1CCCC1C(=O)NCc1ccccc1F (centres unmarked) | 15.3 |
| N#CC1=C(N)N(c2ncn[nH]2)C2=C(C(=O)CCC2)C1c1ccc(F)cc1 (centres unmarked) | 11.4 |
| COc1ccc(OC)c(S(=O)(=O)N2CCC(C(=O)NCc3cccnc3)CC2)c1 | 11.9 |
| CCOC(=O)c1ccc(NC2=CC(=O)C(=O)c3ccccc32)cc1 | 8 |
| CCCS(=O)(=O)N1CCC(C(=O)NC2CCCCC2C)CC1 (centres unmarked) | 19.7 |
| O=S(=O)(Nc1nc2ccccc2nc1Nc1ccc2c(c1)OCO2)c1ccc(F)cc1 | 20.2 |
| Cc1ccc(S(=O)(=O)N/N=C\c2cc3c(cc2Br)OCO3)cc1 | 2.42 |
| COc1cc2c(C(=O)N3CCN(c4ccccc4C)CC3)c(C)oc2cc1Br | 18.4 |
| Cc1cc2oc(=O)cc(C)c2cc1NC(=O)CCl | 7.4 |
| CCOC(=O)CSc1nnc(CNC(=O)c2ccccc2OC)n1-c1ccc(OC)cc1 | -12.8 |
| Cc1ccc(Cn2cc(/C=N/NC(=O)Cc3nnc(NC(=O)c4ccc(C)cc4)s3)c3ccccc32)cc1 | -3.42 |

| SMILES | hERG current change (%, negative = inhibition) at 1uM [%] |
| --- | --- |
| CCOC(=O)N1CCN=C1SCc1ccc(Cl)c(Cl)c1 | 4.42 |
| Cc1ccc(S(=O)(=O)N2CCCCC2)cc1NC(=O)CNCc1ccco1.O=C(O)C(=O)O | 6.43 |
| CCN(N)C(=S)Nc1ccc(F)cc1 | 17.7 |
| O=C(Cn1cnc2ccccc2c1=O)Nc1ccccc1N1CCOCC1 | 7.26 |
| Cc1cc(C=O)c(C)n1-c1ccc2c(c1)OCO2 | 11.3 |
| O=C(N/N=C/c1ccc(Br)cc1)c1ccccc1-n1cccc1 | 20.2 |
| CCOc1cc(C(=O)Nc2ccc(S(=O)(=O)NC3=NCCCCC3)cc2)cc(Br)c1OC | 15.4 |
| Cc1cc(Cl)c(OCCOCCN2CCC(C)CC2)c(Br)c1.O=C(O)C(=O)O | -23.7 |
| CC1(C)CC(=O)c2cc(C(=O)NCc3ccco3)c(=O)n(-c3ccc(Cl)cc3)c2C1 | 6.22 |
| CC(=O)Nc1cccc(NC(C)=C(C#N)C#N)c1 | 12.9 |
| Cl.O=C(CCN1CCCCCC1)Nc1cccc(Cl)c1 | 3.74 |
| c1ccc2c(c1)nc(NCC1CCCO1)c1nnnn12 (centres unmarked) | 6.02 |
| Cc1cc(=O)oc2cc(OCC(=O)OCC(=O)Nc3c(C)n(C)n(-c4ccccc4)c3=O)ccc12 | -1.45 |
| COc1ccc(CNS(=O)(=O)NCc2ccccc2)cc1OC | 13.5 |
| Cc1ccc(C(C)C)cc1OCC(=O)N1CCN(C(=O)c2ccco2)CC1 | 4.08 |
| O=C(COc1cccnc1[N+](=O)[O-])Nc1ncc(Cl)cc1Cl | 12.5 |
| Cc1nn(C)c(C)c1CN(C)C(=O)c1cnn2c1NC(c1ccccc1)CC2C(F)(F)F (centres unmarked) | -3.12 |
| CC(C)C(c1nnnn1CC1CCCO1)N1CCN(Cc2ccc3c(c2)OCO3)CC1.Cl (centres unmarked) | -1.36 |
